According to the supplement of paper PMC4967469:
Lines with a small IC50 respond at low doses; where the fit passes the top or lowest dose, that dose stands as a limit. AUC is the area under the same curve over the 256-fold range up to the top dose, as a fraction; the more sensitive the line, the further below 1. An inferred top dose was derived from the fitted curves, not read from the paper.

Key:
Assay in all cases: Viability of human cancer cell lines after 72 h of drug (GDSC screen)
CAY10603 = compound: CC(C)(C)OC(=O)Nc1ccc(-c2cc(C(=O)NCCCCCCC(=O)NO)no2)cc1 [CAY10603]; conditions: top dose 20 µM; top dose inferred
Protocol: (§1)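 Human cancer cell lines in 384-well plates, medium with 10% serum, drug for 72 h over a 256-fold dose range (nine 2-fold or five 4-fold steps up to the top dose). Adherent lines were fixed and stained with the nucleic acid dye Syto60, suspension lines read with resazurin; signal relative to control wells, capped at 0 and 100%. One two-parameter sigmoid per drug and line, fitted in a mixed model over all curves with the slope shared within a line.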

XMD8-92 = compound: CCOc1cc(N2CCC(O)CC2)ccc1Nc1ncc2c(n1)N(C)c1ccccc1C(=O)N2C [XMD8-92]; conditions: top dose 10 µM; top dose inferred
Protocol: as §1

CH5424802 = compound: CCc1cc2c(cc1N1CCC(N3CCOCC3)CC1)C(C)(C)c1[nH]c3cc(C#N)ccc3c1C2=O [CH5424802]; conditions: top dose 5.12 µM; top dose inferred
Protocol: as §1

ACHP (KIN001-260) = compound: N#Cc1c(C2CCNCC2)cc(-c2c(O)cccc2OCC2CC2)nc1N [ACHP (KIN001-260)]; conditions: top dose 20 µM; top dose inferred
Protocol: as §1

Row | Cell Line | AUC (CAY10603) | IC50 (CAY10603) [µM] | AUC (XMD8-92) | IC50 (XMD8-92) [µM] | AUC (CH5424802) | IC50 (CH5424802) [µM] | AUC (ACHP (KIN001-260)) | IC50 (ACHP (KIN001-260)) [µM]
1 | A2058 (melanoma, adherent) | 0.847 | 12.4 | 0.895 | 9.9 | 0.99 | > 5.12 | 0.99 | > 20
2 | SK-LMS-1 (soft tissue, adherent) | 0.208 | 0.182 | 0.863 | 7.93 | 0.984 | > 5.12 | 0.953 | > 20
3 | EW-7 (Ewing sarcoma, semi-adherent) | 0.395 | 0.668 | 0.986 | > 10 | 0.903 | > 5.12 | 0.852 | 12.7
4 | LB831-BLC (bladder, adherent) | 0.592 | 2.24 | 0.85 | 7.74 | 0.987 | > 5.12 | 0.681 | 4.04
5 | SNU-407 (large intestine, adherent) | 0.638 | 3.21 | 0.87 | > 10 | 0.969 | > 5.12 | 0.961 | > 20
6 | SK-MEL-2 (melanoma, adherent) | 0.696 | 4.55 | 0.911 | > 10 | 0.985 | > 5.12 | 0.987 | > 20
7 | NY (osteosarcoma, adherent) | 0.988 | > 20 | 0.904 | > 10 | 0.989 | > 5.12 | 0.989 | > 20
8 | RCC-FG2 (kidney, adherent) | 0.58 | 2.2 | 0.962 | > 10 | 0.97 | > 5.12 | 0.967 | > 20
9 | TE-1 (oesophagus, adherent) | 0.962 | > 20 | 0.891 | > 10 | 0.981 | > 5.12 | 0.982 | > 20
10 | LXF-289 (lung adenocarcinoma, adherent) | 0.565 | 1.87 | 0.906 | > 10 | 0.981 | > 5.12 | 0.979 | > 20
11 | K2 (melanoma, adherent) | 0.819 | 16 | 0.861 | > 10 | 0.981 | > 5.12 | 0.939 | > 20
12 | NCI-H1568 (lung adenocarcinoma, adherent) | 0.982 | > 20 | 0.905 | > 10 | 0.968 | > 5.12 | 0.982 | > 20
13 | WM1552C (melanoma, adherent) | 0.556 | 1.78 | 0.941 | > 10 | 0.984 | > 5.12 | 0.987 | > 20
14 | NOMO-1 (acute myeloid leukaemia, suspension) | 0.403 | 0.654 | 0.752 | 3.72 | 0.972 | > 5.12 | 0.777 | 9.14
15 | JHU-022 (head and neck, adherent) | 0.958 | > 20 | 0.806 | 6.8 | 0.978 | > 5.12 | 0.96 | > 20
16 | D-336MG (glioma, adherent) | 0.567 | 2 | 0.935 | > 10 | 0.969 | > 5.12 | 0.958 | > 20
17 | 639-V (bladder, adherent) | 0.737 | 5.23 | 0.92 | > 10 | 0.991 | > 5.12 | 0.991 | > 20
18 | NOS-1 (osteosarcoma, adherent) | 0.413 | 0.685 | 0.925 | > 10 | 0.967 | > 5.12 | 0.846 | 20
19 | GB-1 (glioma, adherent) | 0.278 | 0.258 | 0.938 | > 10 | 0.976 | > 5.12 | 0.945 | > 20
20 | EKVX (lung adenocarcinoma, adherent) | 0.799 | > 20 | 0.924 | > 10 | 0.959 | > 5.12 | 0.962 | > 20
21 | NCI-H1436 (small cell lung carcinoma, suspension) | 0.468 | 1.01 | 0.963 | > 10 | 0.977 | > 5.12 | 0.971 | > 20
22 | MSTO-211H (mesothelioma, adherent) | 0.707 | 4.48 | 0.977 | > 10 | 0.991 | > 5.12 | 0.991 | > 20
23 | OCI-AML3 (acute myeloid leukaemia, suspension) | 0.339 | 0.481 | 0.756 | 2.99 | 0.965 | > 5.12 | 0.87 | 14.3
24 | OVCA420 (ovary, adherent) | 0.621 | 3.01 | 0.876 | > 10 | 0.98 | > 5.12 | 0.948 | > 20

Row | Cell Line | AUC (CAY10603) | IC50 (CAY10603) [µM] | AUC (XMD8-92) | IC50 (XMD8-92) [µM] | AUC (CH5424802) | IC50 (CH5424802) [µM] | AUC (ACHP (KIN001-260)) | IC50 (ACHP (KIN001-260)) [µM]
25 | LAN-6 (neuroblastoma, adherent) | 0.798 | 11.6 | 0.97 | > 10 | 0.881 | > 5.12 | 0.98 | > 20
26 | K5 (thyroid, adherent) | 0.574 | 1.98 | 0.855 | 7.45 | 0.98 | > 5.12 | 0.984 | > 20
27 | NCI-H1993 (lung adenocarcinoma, adherent) | 0.755 | 8.77 | 0.962 | > 10 | 0.975 | > 5.12 | 0.98 | > 20
28 | SK-N-DZ (neuroblastoma, adherent) | 0.611 | 2.51 | 0.869 | 9.04 | 0.988 | > 5.12 | 0.988 | > 20
29 | NCI-SNU-5 (stomach, suspension) | 0.805 | 10.3 | 0.988 | > 10 | 0.989 | > 5.12 | 0.989 | > 20
30 | ESO26 (oesophagus, adherent) | 0.49 | 1.18 | 0.859 | 7.52 | 0.857 | 3.8 | 0.955 | > 20
31 | SU-DHL-8 (B-cell lymphoma, suspension) | 0.138 | 0.102 | 0.878 | 8.98 | 0.96 | > 5.12 | 0.874 | 17.3
32 | LB2241-RCC (kidney, adherent) | 0.723 | 5.83 | 0.855 | 9.47 | 0.984 | > 5.12 | 0.974 | > 20
33 | RXF393 (kidney, adherent) | 0.471 | 1.01 | 0.961 | > 10 | 0.903 | > 5.12 | 0.888 | > 20
34 | ASH-3 (thyroid, adherent) | 0.92 | > 20 | 0.89 | > 10 | 0.986 | > 5.12 | 0.988 | > 20
35 | NCI-H28 (mesothelioma, adherent) | 0.843 | > 20 | 0.927 | > 10 | 0.978 | > 5.12 | 0.976 | > 20
36 | H2369 (mesothelioma, adherent) | 0.684 | 4.18 | 0.938 | > 10 | 0.982 | > 5.12 | 0.981 | > 20
37 | RERF-LC-KJ (lung adenocarcinoma, adherent) | 0.846 | 15.3 | 0.802 | 5.11 | 0.986 | > 5.12 | 0.985 | > 20
38 | HuO9 (osteosarcoma, adherent) | 0.707 | 5.16 | 0.875 | > 10 | 0.943 | > 5.12 | 0.981 | > 20
39 | H2803 (mesothelioma, adherent) | 0.61 | 2.64 | 0.888 | > 10 | 0.974 | > 5.12 | 0.985 | > 20
40 | RPMI-8866 (chronic myeloid leukaemia, suspension) | 0.226 | 0.215 | 0.874 | 8.52 | 0.988 | > 5.12 | 0.797 | 8.68
41 | NAMALWA (Burkitt lymphoma, suspension) | 0.063 | < 0.0781 | 0.915 | > 10 | 0.974 | > 5.12 | 0.931 | > 20
42 | JEG-3 (urogenital system, adherent) | 0.935 | > 20 | 0.981 | > 10 | 0.991 | > 5.12 | 0.991 | > 20
43 | G-MEL (melanoma, adherent) | 0.582 | 2.09 | 0.802 | 4.86 | 0.986 | > 5.12 | 0.967 | > 20
44 | Hs766T (pancreas, adherent) | 0.811 | 15 | 0.921 | > 10 | 0.984 | > 5.12 | 0.984 | > 20
45 | COLO-668 (small cell lung carcinoma, adherent) | 0.529 | 1.5 | 0.98 | > 10 | 0.976 | > 5.12 | 0.982 | > 20
46 | TC-71 (Ewing sarcoma, adherent) | 0.356 | 0.539 | 0.855 | 5.97 | 0.992 | > 5.12 | 0.88 | 14.8
47 | SBC-3 (small cell lung carcinoma, adherent) | 0.203 | 0.184 | 0.794 | 4.13 | 0.987 | > 5.12 | 0.893 | > 20
48 | NCI-H1563 (lung adenocarcinoma, adherent) | 0.742 | 7.12 | 0.945 | > 10 | 0.959 | > 5.12 | 0.868 | > 20
